According to PubChem BioAssay AID504845 (National Center for Advancing Translational Sciences (NCATS), 2011):
In all, about 390,000 compounds went through this assay and about 150 (0.038%) were called active. The inconclusive results got no clear call from the source; some entries with a clear call stand among them for comparison. The call rests on the fitted dose curve; in most records, active means well fitted inhibition curve with a large enough effect; inconclusive means small, poorly fitted or top-dose-only effect; inactive means no such curve, though single readings can be large or run the other way. Where the call is inconclusive, the potency comes from a doubtful curve fit.

These compounds were tested against Regulator of G-protein signaling 4 (Homo sapiens) (UniProt P49798) (assay: Inhibitors of Regulator of G Protein Signaling (RGS) 4: qHTS). Details: Transcreener GDP fluorescence polarization, RGS4-accelerated GTP hydrolysis; series mostly up to 114 µM.
Outline: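 MLSMR compounds (23 nl, pin-transferred) preincubated 10 min at room temperature with a 500nM (2x) first reagent, then RGS4 at 900nM (2x) plus Transcreener GDP mix added; fluorescence polarization (620/688 nm) read before and after 90 min at 30 °C.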
Further: nearly all actives have a fitted effect of over 75% in size.
On the % scale 0 is the no-effect control and ±100 the full control effect; potency means the concentration at half of the fitted maximal effect; tags describe the fitted curve by direction and shape.

Chain of UniProt P49798 (P49798 whole entry, looked up): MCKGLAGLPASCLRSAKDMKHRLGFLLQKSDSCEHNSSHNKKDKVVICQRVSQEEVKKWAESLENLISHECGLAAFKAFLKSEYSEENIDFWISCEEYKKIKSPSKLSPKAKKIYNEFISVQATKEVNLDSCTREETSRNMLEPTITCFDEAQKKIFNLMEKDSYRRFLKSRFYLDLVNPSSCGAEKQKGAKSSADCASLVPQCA

SMILES	Potency	activity change, negative = inhibition
Cc1ccc(/C=N/N2CCN(Cc3cccc4ccccc34)CC2)o1	inconclusive: 70.8 µM [inhibitor, partial curve, poor fit]	
O=C(CCS(=O)(=O)c1ccccc1)Nc1nc2ccc(F)cc2s1	inconclusive: 100 µM [inhibitor, single point]	
Cc1ccc(/C=C2/C(=O)ON=C2c2ccccc2)o1	inconclusive: 31.6 µM [inhibitor, partial curve, poor fit]	
CCN(CC)C1=CC(=O)OC12CCCCC2	inconclusive: 79.4 µM [inhibitor, partial curve, poor fit]	
CC(=O)NC(c1ccc(C)cc1)c1cc([N+](=O)[O-])c2cccnc2c1O (centres undefined)	inconclusive: 50.1 µM [inhibitor, partial curve, poor fit]	
CC1CN2C(c3ccc([N+](=O)[O-])cc3)=CSC2=N1 (centres undefined)	inconclusive: 44.7 µM [inhibitor, partial curve, poor fit]	
COc1cccc(NC(=O)Cn2nnc(C(=O)Nc3cc(Cl)ccc3OC)c2N)c1	inconclusive: 31.6 µM [inhibitor, full curve, poor fit]	
C=CCCC(=O)Nc1nc(C)c(-c2csc(Nc3cccc(OC)c3)n2)s1	inconclusive: 89.1 µM [inhibitor, single point]	
Cc1ccc(OCc2nnc(SCC(=O)c3ccccc3)n2-c2ccccc2)cc1	inconclusive: 89.1 µM [inhibitor, single point]	
Cc1cc(S(=O)(=O)Nc2cccnc2)c(C)s1	inactive	
CCn1cc2nc(SCC(=O)Nc3ccc(C)cc3C)n(Cc3ccc(C)cc3)c(=O)c2n1	inconclusive: 35.5 µM [inhibitor, full curve, poor fit]	
COc1cc2[nH]c(=S)nc(NCc3ccc(C)cc3)c2cc1OC	inconclusive: 89.1 µM [inhibitor, partial curve, poor fit]	
COc1ccccc1C(=O)O/N=C1/CCCc2c1ccc(OC)c2[N+](=O)[O-]	inactive	
COc1ccc(NS(=O)(=O)c2ccc(Cl)c(NC(=O)c3ccccc3F)c2)cc1	inactive	
COc1ccccc1N1CCN(C(=O)c2cc3c(=O)n(Cc4ccco4)ccc3nc2C)CC1	inconclusive: 100 µM [inhibitor, partial curve, poor fit]	
CCOCc1nnc(NC(=O)c2c(-c3ccccc3)noc2C)s1	inconclusive: 50.1 µM [inhibitor, partial curve, poor fit]	
CCOc1ccc(NC(=O)CCn2cnc3onc(-c4ccc(F)cc4)c3c2=O)cc1	inconclusive: 79.4 µM [inhibitor, single point]	
CCS(CC)=NS(=O)(=O)c1ccc(NC(C)=O)cc1	inactive	
Cc1ccc(-n2c(O)c(C=Nc3ccccc3-c3n[nH]c(=S)[nH]c3=O)c3ccccc3c2=O)c(C)c1	inconclusive: 79.4 µM [inhibitor, partial curve, poor fit]	
CCCCC(=O)Nc1ccc(C(=O)NNC(=O)CCc2ccccc2)cc1	inactive	
O=[N+]([O-])c1cc(-c2ccc(C(=S)N3CCOCC3)o2)ccc1Cl	inconclusive: 79.4 µM [inhibitor, partial curve, poor fit]	
Cc1ccc(Nc2c3c(nc4nncn24)CCC3)cc1C	inactive	

SMILES	Potency	activity change, negative = inhibition
O=C1C=CC(O)(c2cc(=O)c3c(O)cc(O)cc3o2)C=C1	inconclusive: 100 µM [inhibitor, partial curve, poor fit]	
CC(=O)Nc1ccc(C(=O)CSc2nc3ccccc3n2CC(=O)N2CCCC2)cc1	inconclusive: 44.7 µM [inhibitor, partial curve, poor fit]	
O=c1c2ccccc2nc2ccc(NCc3ccco3)nn12	inactive	
NC1=NC(=O)/C(=C\c2ccc(O)c([N+](=O)[O-])c2)S1	inactive	
CNc1ccc(Br)cc(C(=O)/C=C/c2ccc3c(c2)OCO3)c1=O	inconclusive: 79.4 µM [inhibitor, partial curve, poor fit]	
c1ccc(CSc2nnc(-c3c[nH]c4ccccc34)o2)cc1	inconclusive: 50.1 µM [inhibitor, partial curve, poor fit]	
c1ccc(-c2nc(N3CCCCC3)nc3ccccc23)cc1	inactive	
Cc1cccnc1Nc1nc(-c2ccc(O)cc2O)cs1		inactive: 28.4% [at 11.4 µM]
O=C(NNC1=C(C(=O)C(F)(F)F)CCC1)c1ccccc1O	inactive	
O=C(N/N=C/c1ccc(F)c(F)c1)c1cc2c(s1)-c1ccccc1CC2	inconclusive: 89.1 µM [inhibitor, single point]	
O=C(NNC(=S)NC(=O)c1cccnc1)c1ccc(Cl)cc1	inconclusive: 89.1 µM [inhibitor, single point]	
Cc1cccc(NC(=O)c2nc(S(C)(=O)=O)ncc2Cl)c1	inconclusive: 56.2 µM [inhibitor, partial curve, poor fit]	
Cc1ccc(-n2c(C)cc(/C=N/Nc3ccc([N+](=O)[O-])cn3)c2C)c(C)c1	inconclusive: 50.1 µM [inhibitor, partial curve, poor fit]	
Cc1ccc2oc(C(=O)N3CCN(c4cccc(C)n4)CC3)c(C)c2c1	inconclusive: 79.4 µM [inhibitor, partial curve, poor fit]	
Cc1ccc2cc(C#N)c(N3CCCN(C(=S)NCCCN(C)C)CC3)nc2c1	inconclusive: 79.4 µM [inhibitor, partial curve, poor fit]	
O=C(CCN1CCN(c2ccccc2)CC1)N/N=C/c1ccc(O)c(O)c1O	inconclusive: 56.2 µM [inhibitor, partial curve, poor fit]	
CC(=O)Nc1sc(C)c(C)c1C(=O)OC(C)C	inconclusive: 79.4 µM [inhibitor, partial curve, poor fit]	
COc1ccc2nc(NC(=O)CCNC(=O)c3ccccc3Cl)sc2c1	inactive	
FC(F)Oc1ccc(NC(=S)Nn2cnnc2)cc1	inconclusive: 10 µM [inhibitor, full curve, poor fit]	
COc1ccc(OCC(O)CNCCOc2ccccc2OC)c(C(C)(C)C)c1 (centres undefined)	inconclusive: 89.1 µM [inhibitor, partial curve, poor fit]	
COC(=O)C1SCC2C(=O)N(Cc3ccc(Cl)c(Cl)c3)CC(=O)N21 (centres undefined)	inconclusive: 20 µM [inhibitor, full curve, poor fit]	
S=C(NCc1ccccn1)NN=Cc1ccccn1	inconclusive: 70.8 µM [inhibitor, single point]	

SMILES	Potency	activity change, negative = inhibition
CN(C)/C=N/c1ncc(C(=O)c2ccc(-c3ccccc3)cc2)s1	inconclusive: 100 µM [inhibitor, partial curve, poor fit]	
COC(=O)c1ccc(CCc2cc(O)c(Br)cc2O)cc1	inconclusive: 79.4 µM [inhibitor, partial curve, poor fit]	
Cc1ccc(NC(=O)c2cc(S(=O)(=O)N3CCCC(C)C3)cn2C)c(Br)c1 (centres undefined)	inactive	
O=C(O)Cc1ccc(NC(=S)Nc2cccc(Cl)c2Cl)cc1	inconclusive: 44.7 µM [inhibitor, partial curve, poor fit]	
CCOC(=O)C1(Cc2ccccc2C(F)(F)F)CCN(C(C)CCn2cccn2)CC1 (centres undefined)	inactive	
Cc1ccc(Cn2c(SCC(=O)Nc3cc(C)on3)nc3ccccc3c2=O)cc1	inconclusive: 79.4 µM [inhibitor, single point]	
N#CC1=C(N)NC(=S)C(C(N)=O)C1c1ccc([N+](=O)[O-])cc1 (centres undefined)	inconclusive: 17.8 µM [inhibitor, full curve, poor fit]	
COP(=O)(OC)c1ccc(NCc2cc(O)ccc2O)cc1	inconclusive: 79.4 µM [inhibitor, partial curve, poor fit]	
COC(=O)c1ccc(NC(=O)c2c(NCc3ccc(C)o3)sc3c2CCCC3)cc1	inconclusive: 44.7 µM [inhibitor, partial curve, poor fit]	
Cc1ccc(N=Nc2c(C)[nH]n(-c3ccccc3)c2=O)c(C)c1	inconclusive: 28.2 µM [inhibitor, full curve, poor fit]	
COc1ccc(OC)c(NC(=O)c2cccc(N3C(=O)C4C5CCC(C5)C4C3=O)c2)c1 (centres undefined)	inactive	
CCc1ccc(-c2nc3ccc(Br)cc3c(C(=O)O)c2C)s1	inconclusive: 44.7 µM [inhibitor, partial curve, poor fit]	
O=C(NC(=S)Nc1cc(C(F)(F)F)ccc1Cl)c1ccccc1	inactive	
O=C(NC(=S)NNC(=O)c1ccccc1O)c1cccs1	inconclusive: 50.1 µM [inhibitor, partial curve, poor fit]	
S=C(Nc1cc(Cl)ccc1Cl)Nn1cnnc1	inconclusive: 50.1 µM [inhibitor, partial curve, poor fit]	
Cc1ccc2nc(N3C(=O)C(O)=C(C(=O)c4ccco4)C3c3ccc(C)o3)sc2c1 (centres undefined)	inconclusive: 10 µM [inhibitor, full curve, poor fit]	
CCOc1cc(C(=S)N2CCOCC2)ccc1OC(=O)c1ccccc1	inconclusive: 50.1 µM [inhibitor, partial curve, poor fit]	
CC1(C)CC(=O)C2=C(C1)Nc1cc3c(cc1C2c1ccc(F)cc1)OCO3 (centres undefined)	inactive	
Cc1ccc(S(=O)(=O)NC(C(=O)Oc2ccc3c(C(F)(F)F)cc(=O)oc3c2)c2ccccc2)cc1 (centres undefined)	inactive	
Cc1ccc(-n2c(O)c(/C=N/c3ncn[nH]3)c3ccccc3c2=O)cc1	inconclusive: 50.1 µM [inhibitor, partial curve, poor fit]	
